# Read counts are not given, so values of variants with three or more changes are uncertain.
# B1: CPEB3 Ribozyme (parent)
# chain: UAACAGGGGGCCACAGCAGAAGCGUUCACGUCGCAGCCCCUGUCAGAUUCUGGUGAAUCUGCGAAUUCUGCUGUAUAUCUC
# Variants of: B1
# Test: self-cleavage, relative activity (ratio to wild type); higher = more cleavage; in vitro, sequencing
# Outline: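 Barcoded CPEB3 ribozyme mutants, produced by rounds of error-prone PCR, self-cleaved while being transcribed with T7 RNA polymerase for 5 hours at 37°C and during a subsequent 15 min DNase I step before EDTA was added. Sequencing of template-switched cDNA on Illumina gave cleaved and total reads, and DNA sequencing assigned barcodes to variants. Each variant's relative activity is its cleaved/total read fraction divided by the unmutated ribozyme's fraction, averaged across three batches. A variant needed a minimum of 5 reads.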
row,Variant,self-cleavage
1,G19U U25C C40A A45G A47U A57G U60C,0
2,G19U U25C C40A G53U G70U,0.1
3,G19U U25C U41C,0.14
4,G19U U26A G61C G73C,0.23
5,G19U U26A U72C,0.09
6,G19U U26C A35G U43C A56G,0.08
7,G19U U26C A65G,0.16
8,G19U U26C U41C A47G G63U A65G,0.1
9,G19U U31A U60C U72A U76C,0.05
10,G19U U31C A45G,0.21
11,G19U U31C U72A A77U U80C,0.23
12,G19U U41A C50A A65U,0.07
13,G19U U41C U43A A47C U51A,0.09
14,G19U U41C U58G U60A U78G,0.1
15,G19U U41G A45G U72C U80G,0.16
16,G19U U43C A47G U48A U80C,0.04
17,G19U U43C U48C U66C,0.14
18,G19U U43C U54C U69A,0.09
19,G19U U49C U72C G73A,0.18
20,G19U U51A U60A,0.11
21,G19U U51A U66C,0.28
22,G19U U58C A64G,0.14
23,G19U U60A A65G U76C,0.08
24,G19U U67A U69A,0.18

row,Variant,self-cleavage
1,G19U U76A U78C,0.13
2,A20C A21G A45C,0.03
3,A20C A21U C37U U48C A57G U69C,0.05
4,A20C A21U U26C C81U,0.05
5,A20C A21U U66A U72C,0.12
6,A20C A35G A64U,0.24
7,A20C A35G U41G A45G,0.44
8,A20C A35G U43C U72C,0.52
9,A20C A35G U54C U72A,0.33
10,A20C A35U U41C A64U,0.1
11,A20C A35U U54C,0.29
12,A20C A45C A65G U67A U76C,0.23
13,A20C A47G A56G U74A,0.34
14,A20C A47G U67C G70U,0.5
15,A20C A57G U60C,0.08
16,A20C A57G U66C U67C U74C U78C,0.19
17,A20C A57G U67C,0.09
18,A20C A75U A77G,0.35
19,A20C C23U U51A,0.22
20,A20C C27A A28U A45G,0.21
21,A20C C27U A47G U49A U51A A56U,0.21
22,A20C C29G A65G,0.08
23,A20C C29U U31C A47G,0.06
24,A20C C29U U31C U48C,0.08

row,Variant,self-cleavage
1,A20C C38G A47G U67C G70U,0.33
2,A20C C38U A56G U76C U80C,0.05
3,A20C C62U A64G,0.15
4,A20C G24A U26G A45U C59U,0.04
5,A20C G30C A64G A65C U69A U72C,0.05
6,A20C G36A U67A,0.1
7,A20C U25A C37U A47G U60C C62G,0.09
8,A20C U25C A28G U69C A77U,0.14
9,A20C U25C C50A,0.36
10,A20C U25C G46U A65G,0.05
11,A20C U25C U78C,0.1
12,A20C U26C C27U U78C,0.08
13,A20C U26C U48G U78A,0.11
14,A20C U26C U60A U72C,0.3
15,A20C U31C U41A U48A U74A,0.22
16,A20C U31C U43C U51A,0.12
17,A20C U41A U43C G53A U72A,0.12
18,A20C U41C G42A,0.07
19,A20C U43G U76C,0.25
20,A20C U48C G63U U72A,0.06
21,A20C U48C U54C U67C,0.11
22,A20C U49C A64G A75G,0.12
23,A20C U49C U60C A65G U78C,0.09
24,A20C U51A U78C,1.1

row,Variant,self-cleavage
1,A20C U66C U67C,0.43
2,A20C U72A A75G,0.33
3,A20C U78A U80A,0.39
4,A20G A21C A56G,0.26
5,A20G A21C A77G,0.38
6,A20G A21C U72A,0.13
7,A20G A21G A28C U74C,0.44
8,A20G A21G A28G,0
9,A20G A21G A28U U60A A75C,0.37
10,A20G A21G A35C,0.07
11,A20G A21G A35G A64U U69C A77C,0.05
12,A20G A21G A35U U43C,0.07
13,A20G A21G A45G C50U U67C U72A,0.18
14,A20G A21G A56G A57G U58A,0.31
15,A20G A21G A57G C71G,0.16
16,A20G A21G A57G U67G,0.12
17,A20G A21G A64U C79A,0.05
18,A20G A21G A65G,0.32
19,A20G A21G C23A U26A,0.47
20,A20G A21G C27A U51C,0.27
21,A20G A21G C27U U31C A75G,0.21
22,A20G A21G C29G U78C,0.04
23,A20G A21G G22C,0.25
24,A20G A21G G24C A35G,0.32

row,Variant,self-cleavage
1,A20G A21G G46C A57U U67C U76A U80A,0.06
2,A20G A21G G63C U78C,0.3
3,A20G A21G U25C C50A U69C,0.34
4,A20G A21G U25C U26A G52A,0.06
5,A20G A21G U25C U60A,0.38
6,A20G A21G U25C U78C,0.38
7,A20G A21G U26A A45U,0.05
8,A20G A21G U26A A56G A57G,0.11
9,A20G A21G U41A A57C U67C,0.07
10,A20G A21G U41C,0.5
11,A20G A21G U41C U48C U76C,0.14
12,A20G A21G U41C U72A,0.24
13,A20G A21G U43A A57U U69A U80C,0.12
14,A20G A21G U43A U69C,0.16
15,A20G A21G U43C U60C,0.26
16,A20G A21G U43C U69C,0.33
17,A20G A21G U48C A57G U67C,0.18
18,A20G A21G U49A U67C,0.39
19,A20G A21G U49A U69C,0.2
20,A20G A21G U49C C50U A57G U58C,0.08
21,A20G A21G U51A,0.34
22,A20G A21G U51A A64G,0.46
23,A20G A21G U51C,0.38
24,A20G A21G U51C A75G,0.31

row,Variant,self-cleavage
1,A20G A21G U54C U74C,0.53
2,A20G A21G U54G U69C U76C,0.15
3,A20G A21G U58A U67G U69C,0.05
4,A20G A21G U60A A65G U78C,0.12
5,A20G A21G U66C U72A,0.58
6,A20G A21G U67A,0.38
7,A20G A21G U76C U78C,0.25
8,A20G A21U A28G U60A G73A U78C,0.06
9,A20G A21U A47U A75U,0.24
10,A20G A21U A56U,0.43
11,A20G A21U A57G U66C,0.11
12,A20G A21U A64G,0.12
13,A20G A21U U26C C29A U41A U54A A64G,0.13
14,A20G A21U U26C U41A U43A A65G,0.09
15,A20G A21U U31G U48C,0.24
16,A20G A21U U41C U43A A45U U48C,0.47
17,A20G A21U U43A A64U,0.31
18,A20G A21U U58C,0.27
19,A20G A28C A65U,0.23
20,A20G A28G A35G C44A A57G U60A,0.04
21,A20G A28G A35U A45U U54A,0.07
22,A20G A28G A35U U76C,0.6
23,A20G A28G A65G C68A,0.23
24,A20G A28G A65U U72C,0

row,Variant,self-cleavage
1,A20G A28G C34U,0.15
2,A20G A28G C44U,0.42
3,A20G A28G G46U,0.19
4,A20G A28G G55U U66C,0.12
5,A20G A28G G70A,0.32
6,A20G A28G U31A A45G G46A U80C,0.18
7,A20G A28G U31C A57G,0.38
8,A20G A28G U31C U43C G63A A77U,0.09
9,A20G A28G U31C U48C G55A A75G,0.16
10,A20G A28G U41A A56G U66C U72A,0.05
11,A20G A28G U41A U48C,0.05
12,A20G A28G U41C A56U C71A,0.14
13,A20G A28G U41C A64U,0.38
14,A20G A28G U41C G61U A64G A77G,0.17
15,A20G A28G U43A U66C U67C U69A U74C,0.1
16,A20G A28G U43G G46U U69C,0.16
17,A20G A28G U54C U60C U72A,0.1
18,A20G A28G U72C,0.41
19,A20G A28G U78A,0.33
20,A20G A28G U80C,0.57
21,A20G A28U A35U A47U U49A U58C,0.18
22,A20G A28U A35U A57G,0.21
23,A20G A28U A57G U78C,0.34
